Reference: US20150210767A1 (GlaxoSmithKline, published 2015)

T1: human TNFR1 on human umbilical vein endothelial cells (HUVECs) (human, UniProt P19438 30-455)
T1 sequence (looked up): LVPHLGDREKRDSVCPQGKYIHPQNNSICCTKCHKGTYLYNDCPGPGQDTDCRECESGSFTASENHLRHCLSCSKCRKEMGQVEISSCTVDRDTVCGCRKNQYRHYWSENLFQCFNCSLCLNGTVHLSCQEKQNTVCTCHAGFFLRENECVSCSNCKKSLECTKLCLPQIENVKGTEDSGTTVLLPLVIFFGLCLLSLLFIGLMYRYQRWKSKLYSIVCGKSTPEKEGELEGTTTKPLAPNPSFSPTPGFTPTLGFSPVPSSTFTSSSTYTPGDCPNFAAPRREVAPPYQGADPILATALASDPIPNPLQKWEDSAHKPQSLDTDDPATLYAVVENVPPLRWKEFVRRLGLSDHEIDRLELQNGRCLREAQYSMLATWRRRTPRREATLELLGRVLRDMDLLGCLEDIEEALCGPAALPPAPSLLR

T2: biotinylated recombinant human soluble TNFR1 (human, UniProt P19438 30-211, biotinylated (EZ-Link Sulfo-NHS-LC-Biotin), sites not stated)
T2 construct: extracellular domain; Captured on a streptavidin BIAcore chip; also called human sTNFR1; sTNFR1
T2 sequence (looked up): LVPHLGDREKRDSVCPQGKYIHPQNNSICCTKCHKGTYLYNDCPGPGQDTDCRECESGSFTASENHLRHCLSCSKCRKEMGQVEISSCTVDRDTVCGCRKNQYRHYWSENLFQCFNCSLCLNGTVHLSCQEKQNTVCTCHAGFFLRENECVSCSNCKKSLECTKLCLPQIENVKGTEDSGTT

B1: DMS5541 (bispecific antibody)
chain: EVQLLESGGGLVQPGGSLRLSCAASGFTFDKYSMGWVRQAPGKGLEWVSQISDTADRTYYAH[about 20 residues left out here]MNSLRAEDTAVYYCAIYTGRWVPFEYWGQGTLVTVSSASTDIQMTQSPSSLSASVGDRVTITCRASRPIGTTLSWYQQKPGKAPKLLILWNSRLQSGVPSRFSGSGSGTDFTLTISSLQPEDFATYYCAQAGTHPTTFGQGTKVEIKR
notes: Single-chain genetic fusion of the anti-TNFR1 VH dAb DOM1h-574-208, linker AST and the anti-serum albumin Vk dAb DOM7h-11-3; also called DOM1h-574-208 - Ala-Ser-Thr - DOM7h-11-3; anti-TNFR1/AlbudAb fusion
B2: DOM1h-574-208 (VHH)
VHH: EVQLLESGGGLVQPGGSLRLSCAASGFTFDKYSMGWVRQAPGKGLEWVSQISDTADRTYYAH[about 20 residues left out here]MNSLRAEDTAVYYCAIYTGRWVPFEYWGQGTLVTVSS
notes: Human VH immunoglobulin single variable domain (dAb), not camelid; Monomer cloned in pDOM13 for expression in E. coli; also called anti-TNFR1 dAb DOM1h-574-208

Tests used:
[1] = target: T1, human TNFR1 on human umbilical vein …; test: cell-based or functional assay
[2] = target: T2, biotinylated recombinant human soluble …; test: BIAcore (SPR), biotinylated human TNFR1 on streptavidin chip, fusion injected, mean of two experiments ± SD
Protocol: The affinity of the anti-TNFR1/AlbudAb fusions for human TNFR1 was determined by BIAcore. Briefly, the anti-TNFR1 molecules were injected over a streptavidin BIAcore chip on which biotinylated, human TNFR1 had been immobilised. Association and dissociation were determined at different concentrations of injected anti-TNFR1. […] The affinity for human TNFR1 as determined by BIAcore of the anti-TNFR1/AlbudAb fusion is slightly higher to that determined for the single anti-TNFR1 dAb used in each of the combination constructs.
The binding affinities for binding to recombinant human TNFR1 were assessed by BIAcore™ analysis. Analysis was carried out using Streptavidin coated (SA) chips (BIAcore, cat no. BR-1000-32). An SA chip was coated at low density using biotinylated hTNFR1. Examined molecules were injected over this surface at […] concentrations, i.e. 32, 16 (twice), 8, 4, 2, 1 and 0.5 nM, in random order using a flow rate of 50 μl/min. Between individual injections the surface was regenerated back to baseline using 10 mM glycine pH 2.0. Data were corrected for instrument artefacts using double referencing. Experiments were carried out on a BIAcore™ 3000 machine and data were analysed using the BIAevaluation software version 4.1, kₒₙ and koff were simultaneously fitted using 1:1 Langmuir binding model. […] All KD values were calculated from kₒₙ and koff rates. […]

[3] = target: T2, biotinylated recombinant human soluble …; test: BIAcore (SPR), biotinylated TNFR1 on SA chip; reference value of DOM1h-574-156 (150 pM) described previously
Protocol: (§1) To confirm the increase in accelerated stability four novel dAbs were also characterised according to the more extensive protocol described in example 1. In this protocol, the dAbs are incubated up to 48 h at 40° C., centrifuged and the remaining dAb in solution quantified using OD₂₈₀. […] To verify that the increase in stability is not at the expense of functional anti-TNFR1 activity of the dAb, the binding affinity to TNFR1 of the dAbs was determined by BIAcore, using biotinylated TNFR1 captured on a BIAcore SA chip. […] Therefore, these dAbs combine an increase in accelerated stability without compromising much on the affinity of the dAb for TNFR1.

[4] = target: T2, biotinylated recombinant human soluble …; test: BIAcore (SPR), biotinylated human sTNFR1 on SA chip, dAb injected
Protocol: as §1
TABLE 7 Accelerated stability and affinity for human sTNFR1 for novel anti-TNFR1 dAbs. Purified dAb was incubated at 1 mg/ml in PBS at 40° C. for the indicated amounts of time. After that time, the percentage of residual protein in solution was determined by OD280 determination. Affinity for sTNFR1 was determined by BIAcore using coated sTNFR1 and injecting the dAb as described.

Row | Binder | Mean EC50, inhibition of TNF-alpha-induced VCAM-1 expression in the HUVEC cell assay [1] | Kd [2] | fold change of affinity against the parent dAb DOM1h-574-156 [3] | Kd [4]
1 | B1 | 3.58 nM | 0.163 nM |  | 
2 | B2 |  |  | ≤ 4 fold | 0.27 nM
